# Experimental data: PubChem BioAssay AID504333 (National Center for Advancing Translational Sciences (NCATS), 2011)
# Among all 360,000 compounds or so, about 16,000 (4.4%) were called active. The inconclusive results got no clear call from the source; some entries with a clear call stand among them for comparison. The call rests on the fitted dose curve; in most records, active means well fitted inhibition curve with a large enough effect; inconclusive means small, poorly fitted or top-dose-only effect; inactive means no such curve, though single readings can be large or run the other way. Potencies of inconclusive entries are doubtful fits and often do not repeat.
# Biological target: Bromodomain adjacent to zinc finger domain protein 2B (Homo sapiens) (UniProt Q9UIF8)
# Experiment: qHTS Assay for Inhibitors of BAZ2B; further: nearly all actives have a fitted effect of over 60% in size
# Details: AlphaScreen BAZ2B-H3K14Ac peptide displacement; series mostly up to 114 µM
# In short: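 Protein-peptide AlphaScreen: BAZ2B 50 nM, b-H3K14Ac 50 nM, 1x PBS pH 7.4 + 0.01% Tween-20. Preincubation 30 min RT; cpd 30 min RT (top 110 uM); beads 20 min RT, light-protected.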
# Potency means the concentration at half of the fitted maximal effect; tags describe the fitted curve by direction and shape.
# Sequence of UniProt Q9UIF8 (Q9UIF8 whole entry, looked up, the tested form may be a part): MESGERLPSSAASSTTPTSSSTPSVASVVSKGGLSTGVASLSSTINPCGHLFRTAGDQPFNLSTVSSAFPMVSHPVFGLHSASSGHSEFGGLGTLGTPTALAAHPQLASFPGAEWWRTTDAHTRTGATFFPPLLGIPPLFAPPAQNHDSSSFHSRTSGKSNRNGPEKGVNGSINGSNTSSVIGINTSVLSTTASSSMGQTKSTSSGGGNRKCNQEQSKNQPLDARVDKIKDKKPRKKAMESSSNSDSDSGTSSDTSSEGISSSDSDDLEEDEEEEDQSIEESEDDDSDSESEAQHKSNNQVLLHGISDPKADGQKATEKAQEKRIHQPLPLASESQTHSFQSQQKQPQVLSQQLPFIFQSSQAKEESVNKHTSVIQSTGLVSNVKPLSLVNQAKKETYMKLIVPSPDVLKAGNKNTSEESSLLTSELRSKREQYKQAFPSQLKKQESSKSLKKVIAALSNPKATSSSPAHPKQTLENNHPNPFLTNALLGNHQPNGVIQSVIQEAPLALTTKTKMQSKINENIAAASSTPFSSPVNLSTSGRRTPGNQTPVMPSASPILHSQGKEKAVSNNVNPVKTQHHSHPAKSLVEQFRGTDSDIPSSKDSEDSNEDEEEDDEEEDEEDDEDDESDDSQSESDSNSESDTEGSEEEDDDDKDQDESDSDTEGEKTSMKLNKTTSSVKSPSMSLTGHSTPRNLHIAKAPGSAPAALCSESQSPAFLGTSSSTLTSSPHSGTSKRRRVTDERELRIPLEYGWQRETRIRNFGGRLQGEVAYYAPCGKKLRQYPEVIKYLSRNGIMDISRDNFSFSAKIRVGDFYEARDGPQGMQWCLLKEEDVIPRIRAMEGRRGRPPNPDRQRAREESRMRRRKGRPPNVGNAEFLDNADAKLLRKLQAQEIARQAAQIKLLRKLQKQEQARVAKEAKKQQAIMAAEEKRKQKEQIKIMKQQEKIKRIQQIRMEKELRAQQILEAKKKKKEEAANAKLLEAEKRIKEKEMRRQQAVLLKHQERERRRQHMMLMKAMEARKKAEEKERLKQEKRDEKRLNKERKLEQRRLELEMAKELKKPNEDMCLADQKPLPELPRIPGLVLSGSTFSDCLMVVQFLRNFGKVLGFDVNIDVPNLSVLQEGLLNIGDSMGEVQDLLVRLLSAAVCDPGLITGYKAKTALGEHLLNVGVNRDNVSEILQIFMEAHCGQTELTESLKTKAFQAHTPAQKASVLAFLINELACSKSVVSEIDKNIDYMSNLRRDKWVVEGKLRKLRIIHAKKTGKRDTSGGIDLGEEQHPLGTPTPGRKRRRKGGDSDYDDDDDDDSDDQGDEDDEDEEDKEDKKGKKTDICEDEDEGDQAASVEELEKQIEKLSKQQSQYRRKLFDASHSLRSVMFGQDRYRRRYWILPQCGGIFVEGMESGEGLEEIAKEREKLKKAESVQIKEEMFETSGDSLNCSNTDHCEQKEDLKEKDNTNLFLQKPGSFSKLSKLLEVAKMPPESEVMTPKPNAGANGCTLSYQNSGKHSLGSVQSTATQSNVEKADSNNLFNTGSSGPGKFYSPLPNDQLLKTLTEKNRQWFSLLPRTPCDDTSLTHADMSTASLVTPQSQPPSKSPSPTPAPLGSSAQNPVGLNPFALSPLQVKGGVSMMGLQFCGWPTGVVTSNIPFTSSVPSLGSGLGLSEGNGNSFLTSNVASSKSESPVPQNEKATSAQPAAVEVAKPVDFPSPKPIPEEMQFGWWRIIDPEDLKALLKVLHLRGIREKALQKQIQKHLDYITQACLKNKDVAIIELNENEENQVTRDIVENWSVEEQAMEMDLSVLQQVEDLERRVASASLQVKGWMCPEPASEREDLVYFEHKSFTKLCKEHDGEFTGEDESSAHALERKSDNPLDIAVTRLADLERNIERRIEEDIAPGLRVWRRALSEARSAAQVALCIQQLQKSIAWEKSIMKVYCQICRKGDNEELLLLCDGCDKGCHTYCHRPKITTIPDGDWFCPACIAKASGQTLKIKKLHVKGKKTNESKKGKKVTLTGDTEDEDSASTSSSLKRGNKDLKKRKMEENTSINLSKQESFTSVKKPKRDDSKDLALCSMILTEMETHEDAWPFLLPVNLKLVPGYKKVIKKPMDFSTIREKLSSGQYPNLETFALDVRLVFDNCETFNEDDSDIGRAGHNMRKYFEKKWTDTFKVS
row,SMILES,Potency
1,COc1ccccc1OCC(=O)N1CCCC(N2CCN(c3ccc(F)cc3)CC2)C1 (stereo not drawn),inactive
2,CC(=O)c1ccc2c(c1)C1C(Cl)C(Sc3ccccc3[N+](=O)[O-])CC1C(c1ccccc1)N2 (stereo not drawn),active: 44.7 µM
3,CC(C)CCOP(=O)(c1ccc(N(C)C)cc1)C(O)c1ccc(Cl)cc1Cl (stereo not drawn),"inconclusive: 50.1 µM [inhibitor, partial curve]"
4,Cc1cccc(Cn2cccc(C(=O)Nc3nc4ccccc4s3)c2=O)c1,"inconclusive: 89.1 µM [inhibitor, single point]"
5,Nc1nonc1C(=O)N/N=C/c1ccc([N+](=O)[O-])o1,active: 56.2 µM
6,COc1ccc(-n2c(O)c(/C=C/C=Nc3ccccc3)c(=O)[nH]c2=O)cc1,inactive
7,COc1cc2c(C(=O)O)c(C)n(C)c2cc1Br,inactive
8,COc1ccc(CCn2c(O)c(C=Nc3ccc(NC(C)=O)cc3)c(=O)[nH]c2=O)cc1OC,"inconclusive: 79.4 µM [inhibitor, single point]"
9,Cc1cc(C)c(C(=O)CN2CCOCC2)c(C)c1,inactive
10,O=C1Nc2ccccc2/C1=C/c1cnc[nH]1,"inconclusive: 89.1 µM [inhibitor, single point]"
11,CC(=O)c1cccc(OCC(O)CN2CC=C(c3ccccc3)CC2)c1 (stereo not drawn),active: 70.8 µM
12,Cc1ccccc1-n1c(O)c(C=Nc2ccc(N(C)C)cc2)c(=O)[nH]c1=O,"inconclusive: 50.1 µM [inhibitor, partial curve]"
13,COc1ccc(C2N(c3cc(C)on3)C(=O)C3CCCN32)cc1 (stereo not drawn),inactive
14,COC(=O)C1=C(c2ccc3ccccc3c2)C[C@@H]2CC[C@H]1N2C(=O)NCc1ccc(F)cc1,inactive
15,O=P(NS(=O)(=O)c1ccc(Cl)cc1)(Oc1ccccc1)Oc1ccccc1,inactive
16,C=CC1CN2CCC1CC2[C@@H](OC(=O)c1ccc(OC)cc1)c1ccnc2ccccc12 (stereo partly drawn),"inconclusive: 70.8 µM [inhibitor, single point]"
17,NC1CCCCC1N=Cc1c(O)n(Cc2ccc(F)cc2)c(=O)[nH]c1=O (stereo not drawn),"inconclusive: 79.4 µM [inhibitor, single point]"
18,Clc1ccccc1Nc1ncnc(-n2cccc2)n1,"inconclusive: 89.1 µM [inhibitor, single point]"
19,O=c1c(C=NCc2cccs2)c(O)n(C2CCCCC2)c(=O)n1C1CCCCC1,inactive
20,Nc1cncc(C(=O)O)c1,inactive
21,CCOc1ccc(/C=C/C(=O)C(C(N)=O)=C2SCCS2)cc1,"inconclusive: 89.1 µM [inhibitor, single point]"
22,c1ccc(-c2[nH]c(-c3ccccc3)[n+](CC3CO3)c2-c2ccccc2)cc1 (stereo not drawn),"inconclusive: 39.8 µM [inhibitor, partial curve]"
23,O=c1c2ccccc2nc(-c2ccccc2F)n1-c1ccccc1,inactive
24,Cc1ccsc1C(=O)C1CCCN(Cc2cnc(N3CCCC3)s2)C1 (stereo not drawn),"inconclusive: 56.2 µM [inhibitor, partial curve]"

row,SMILES,Potency
1,CCN(CC)c1ccc(/C=C2/C(=O)NC(=O)N(Cc3ccco3)C2=O)cc1,active: 39.8 µM
2,Cc1cc(/C=C2\C(=O)NC(=O)N(Cc3ccco3)C2=O)c(C)n1-c1ccc(C(=O)O)cc1,active: 50.1 µM
3,CC(C)(C)c1cc(C=C(C#N)C#N)cc(C(C)(C)C)c1O,"inconclusive: 39.8 µM [inhibitor, full curve]"
4,CCCCN1C(=O)/C(=C/C=C/c2ccco2)C(=O)NC1=S,active: 35.5 µM
5,CCOC(=O)c1[nH]c(C)c(C(=O)N2CCC3(CC2)OCCO3)c1C,"inconclusive: 100 µM [inhibitor, single point]"
6,CCOC(=O)C1(CCc2ccccc2)CCN(Cc2cccc3cnccc23)CC1,"inconclusive: 89.1 µM [inhibitor, single point]"
7,Cc1cc(C(C#N)c2ccc(Cl)cc2)c(Cl)cc1NC(=O)c1cc(I)cc(I)c1O (stereo not drawn),active: 44.7 µM
8,COc1ccc(C2NCc3ccc4c(c3-n3cccc32)OCO4)cc1O (stereo not drawn),"inconclusive: 39.8 µM [inhibitor, full curve, poor fit]"
9,CCCCn1c(=O)c(C=Nc2cc([N+](=O)[O-])ccc2OC)c(O)n(CCCCl)c1=O,"inconclusive: 31.6 µM [inhibitor, partial curve]"
10,Cc1ccc2nc(C)n(-c3ccc(F)cc3)c(=O)c2c1,inactive
11,Cc1ccc2scc(N3CCN(C)CC3)c(=O)c2c1,inactive
12,COC(=O)C1=C(c2ccc(Cl)c(C(F)(F)F)c2)C[C@@H]2CC[C@H]1N2C(=O)NCCOc1ccccc1Cl,inactive
13,Cc1ccccc1-n1c(O)c(C(c2ccncc2)c2c(O)n(-c3ccccc3C)c(=O)[nH]c2=O)c(=O)[nH]c1=O,"inconclusive: 79.4 µM [inhibitor, single point]"
14,O=c1c2ccccc2nc(/C=C\c2cccc(Br)c2)n1-c1ccc(O)cc1,inactive
15,CN1C(=O)c2ccccc2Sc2ccc(C(=O)N3CCC4(CC3)OCCO4)cc21,inactive
16,CCC(CC)NC1CCCCC1OC (stereo not drawn),"inconclusive: 89.1 µM [inhibitor, single point]"
17,Cn1c(O)c(C(=NCCc2c[nH]c3ccccc23)c2ccccc2)c(=O)n(C)c1=O,"inconclusive: 79.4 µM [inhibitor, single point]"
18,COc1ccc(CNC(=O)C(NC(C)=O)C(C)C)cc1OC (stereo not drawn),inactive
19,Cc1ccccc1-c1nc(CS(=O)CC(=O)N2CCC3(CC2)OCCO3)c(C)o1 (stereo not drawn),"inconclusive: 79.4 µM [inhibitor, single point]"
20,COc1ccc(-n2c(=O)[nH]c3ccccc3c2=O)cc1,inactive
21,N[C@@H](Cc1c[nH]c2ccccc12)c1nnc(SCc2ccccc2F)o1,"inconclusive: 89.1 µM [inhibitor, single point]"
22,Cc1ccc(NN=C2C(=O)OC(C)(C)OC2=O)c(C)c1,"inconclusive: 89.1 µM [inhibitor, single point]"
23,Cc1ccc(-c2nn(CCC(=O)Nc3ccc(OC(F)(F)F)cc3)c(=O)c3ccccc23)cc1,"inconclusive: 100 µM [inhibitor, single point]"
24,CC1=NN(c2ccccc2)C(=O)C1/C=C1\C(=O)NC(=O)N(c2ccc(C)c(C)c2)C1=O (stereo not drawn),"inconclusive: 70.8 µM [inhibitor, single point]"
